Values of other authors in patent US20240189292A1 (priority 2021, published 2024).

Conditions: in vivo; cited from earlier work

CC(C)n1c(=O)cc(N[C@@H](C)c2ccccc2)[nH]c1=O [MYK-461]
Elimination from the body (in words): slow
